# Reference: PubChem BioAssay AID686971 (National Center for Advancing Translational Sciences (NCATS), 2013)
# The whole screen tested about 360,000 compounds, of which about 7,500 (2.1%) were called active. Inconclusive means that the source gave no clear call. Such entries were picked first, then a sample of the others. Calls come from the whole dose curve; as a rule, active = well fitted cell-killing curve with a large enough effect; inconclusive = small, poorly fitted or top-dose-only effect, or effect the other way, or another doubt; inactive = no such curve, though single readings can be large or run the other way. A potency beside an inconclusive call is a rough fit, not a confirmed value.
# Assay: qHTS for induction of synthetic lethality in tumor cells producing 2HG: qHTS for the HT-1080-IDH1KD cell line;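 for activity, negative = toxicity: 0% = DMSO wells and -100% = cell-free medium wells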
# Details: HT-1080 IDH1 knockdown viability, ATP luminescence, 48 h; activity, negative = toxicity: at 46.1 µM (top of the series) unless noted
# In short: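 % activity derives from luminescence (CellTiter-Glo), normalised to DMSO and no-cell wells. HT-1080-IDH1KD cells, 750/well, had 48 h compound exposure at 37 °C.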
# Potency is the fitted concentration of half-maximal effect; tags give direction and shape of the fitted curve.
SMILES,"activity, negative = toxicity",Potency
O=c1c(-c2ccc3c(c2)OCCO3)coc2cc(O)cc(O)c12,inactive: 13.1%,–
CCc1nc2ccc(C(=O)Nc3cc(-c4ccccc4)ccc3OC)cn2c1N(C)CCCc1ccccc1,–,"inconclusive: 20.6 µM [cytotoxic, single point]"
Cc1cc(/C=N\NC(=O)CC(=O)NC2CCCCC2)c(C)n1-c1ccc(Cl)c(Cl)c1,–,"inconclusive: 35.5 µM [cytotoxic, single point]"
COc1ccc(-c2nc3ccc(C)cn3c2CC2CCCCC2)cc1OC,–,"inconclusive: 18.4 µM [cytotoxic, single point]"
Cn1nc(C(F)(F)F)c(C(=O)Nc2ccc(F)cc2F)c1Sc1cccc(Cl)c1,–,"inconclusive: 10 µM [cytotoxic, partial curve]"
COc1ccc(CNCC(O)(c2ccc(Cl)cc2)c2ccc(Cl)cc2)cc1OC,–,"inconclusive: 18.4 µM [cytotoxic, single point]"
Cc1nc([N+](=O)[O-])cn1CC(=O)Nc1ccc(F)c(Cl)c1,inactive: -1.62%,–
O=C(Nc1cccnc1Cl)c1ccc(Cl)c([N+](=O)[O-])c1,inactive: 8.22%,–
Cc1ccnc(NCc2cc(C)ccc2O)c1,inactive: -20.1%,–
CC(C)(C)c1ccc(C(=O)Nc2nnc(C3=COCCO3)o2)cc1,inactive: -19.8%,–
CN(C)S(=O)(=O)c1cccc(NC(=O)c2cccc(N3C(=O)CCC3=O)c2)c1,inactive: -4.83%,–
CCc1nc2c(OCc3ccc(C(=O)OC)cc3)cccn2c1N(C)C(=O)C(C)C,inactive: -1.16%,–
O=C(Cc1ccccc1)N/N=C/c1ccc([N+](=O)[O-])s1,–,"inconclusive: 32.6 µM [cytotoxic, single point]"
COc1ccc(C)c2sc(N(CCN(C)C)C(=O)/C=C/c3cccs3)nc12,–,"inconclusive: 20.6 µM [cytotoxic, single point]"
COc1ccc(C(=O)NCC(=O)NCC(=O)OCC(=O)c2cccs2)cc1,inactive: 8.51%,–
COC(=O)C1=C(C(=O)OC)SC(=C2C(=S)C(C)(C)N(C(=O)C3CC3)c3ccccc32)S1,–,"inconclusive: 35.5 µM [cytotoxic, single point]"
CC(C)C[C@@]12C(=O)N(c3cccc(Br)c3)C(=O)N1[C@H](c1ccc(F)cc1)[C@@H]1C(=O)N(C3CCCCC3)C(=O)[C@@H]12,inactive: 10.4%,–
Cc1ccc(/C=C2\SC(=S)N(CCCC(=O)Nc3ccccc3C(=O)O)C2=O)cc1,inactive: 10.5%,–
CCCCCCCN1C(Nc2ccccc2)=NC[C@@H]1Cc1ccccc1,–,"inconclusive: 29.1 µM [cytotoxic, single point]"
CC[N+](CC)=N/N=C1\C=CC[N+]([O-])=C1,–,"inconclusive: 20.6 µM [rising, single point]"
CCOC(=O)c1[nH]c(C)c(C(=O)OCCOc2cccc(C)c2)c1C,–,"inconclusive: 32.6 µM [cytotoxic, single point]"
Clc1nnc(N/N=C/c2ccccc2)c2ccccc12,–,"inconclusive: 35.5 µM [cytotoxic, single point]"
O=C1NC(Cc2c[nH]c3ccccc23)C(=O)N1CCOc1ccc(F)cc1 (configuration not stated),inactive: -1.42%,–
COc1ccc(CN2C[C@@H](CO)O[C@@H](n3cnc4c(N5CCN(c6ccccc6)CC5)ncnc43)C2)cc1,–,active: 18.4 µM

SMILES,"activity, negative = toxicity",Potency
COc1ccc(Nc2nc(N)c([N+](=O)[O-])c(NC3CCCCC3)n2)cc1,–,"inconclusive: 29.1 µM [cytotoxic, single point]"
CC(C)c1onc(C(=O)NC2CCCCC2)c1[N+](=O)[O-],–,"inconclusive: 23.1 µM [cytotoxic, partial curve, poor fit]"
O=C(O)Cc1c[nH]c2ccc(O)cc12,–,"inconclusive: 29.1 µM [cytotoxic, single point]"
Brc1ccccc1-c1nc2c3ccccc3ncn2n1,inactive: -10.8%,–
Cc1cnc(C)c(Nc2nc(C(N)CCc3ccccc3)cs2)n1 (configuration not stated),–,"inconclusive: 20.6 µM [cytotoxic, single point]"
Cc1nnc(NC(=O)C2c3ccccc3Oc3ccccc32)s1,–,"inconclusive: 8.2 µM [cytotoxic, partial curve]"
O=C1C[C@@H]2c3c(cccc3CN1Cc1ccccc1F)C[C@@H](O)[C@H]2O,inactive: 9.12%,–
CCc1c(C#N)c(SCCC(=O)Nc2ccc(F)cc2)nc2c1C(=O)CC(C)(C)C2,–,"inconclusive: 23.1 µM [cytotoxic, single point]"
COc1ccc(S[C@@H](CCN2CC[C@H](NC(=O)OCc3ccccc3)CCC2=O)c2ccccc2)cc1,–,"inconclusive: 32.6 µM [cytotoxic, single point]"
O=C(Nc1ccc(N2CCOCC2)c(Cl)c1)c1cc2ccccc2o1,–,"inconclusive: 16.4 µM [cytotoxic, single point]"
Cc1ccnc(NC(=O)c2ccc(S(=O)(=O)c3ccccc3)cc2)c1,inactive: 0.231%,–
COc1ccc(C2CC(c3ccc4ccccc4c3)=NN2C(=O)COC(=O)C2CCC(=O)N2)cc1 (configuration not stated),–,"inconclusive: 18.4 µM [cytotoxic, partial curve]"
CC(C)CCC(CCN1CCOCC1)c1ccc2c(c1)OCO2 (configuration not stated),–,"inconclusive: 35.5 µM [cytotoxic, single point]"
C=C1C(O)[C@@H]2O[C@]3(CC[C@H](/C=C/C(C)[C@@H]4CC(C)=CC5(O[C@H](C[C@@](C)(O)CO)CCC5O)O4)O3)CC[C@H]2O[C@@H]1C(O)CC(C)[C@H]1OC2(CCCCO2)CCC1C (some centres not stated),–,active: 0.82 µM
Cc1cc([N+](=O)[O-])cc(/C=N/n2c(C)nc3ccccc3c2=O)c1O,–,"inconclusive: 29.1 µM [cytotoxic, single point]"
CCN(CC)CCCNC(=O)C1c2ccccc2Oc2ccccc21,inactive: 9.27%,–
Cc1nc2ccc(NC(=O)c3ccc(S(=O)(=O)N4CCOCC4)cc3)cc2s1,inactive: -24.4%,–
Cc1c(C=O)c(C=O)c(C)n1Cc1ccccc1,–,active: 4.11 µM
c1ccc(C2=Nc3c(ccc4ccccc34)C(c3ccncc3)=NN2)cc1,–,active: 20.6 µM
COc1c(C)cc(C(O)c2ncc(-c3ccccc3Cl)[nH]2)cc1C (configuration not stated),–,"inconclusive: 29.1 µM [cytotoxic, single point]"
Cc1cc(C(=O)CCl)c(C)n1-c1cccc(S(=O)(=O)N2CCOCC2)c1,–,"inconclusive: 29.1 µM [cytotoxic, single point]"
Cc1ccc2[nH]c3c(c2c1)CN(C(=O)CN1CCN(c2cccc(C)c2C)CC1)CC3,–,active: 18.4 µM
CCCCC(=O)Oc1c(S(=O)(=O)c2ccc(C)cc2)c(C)nn1C(C)(C)C,–,"inconclusive: 29.1 µM [cytotoxic, single point]"
O=C(NCc1ccccc1)C1Cc2c(-c3ccc(Cl)cc3)ccnc2O1 (configuration not stated),–,active: 0.731 µM

SMILES,"activity, negative = toxicity",Potency
COc1ccccc1-c1cc2nc(-c3ccccc3)cc(N3CCN(C(=O)c4ccco4)CC3)n2n1,inactive: 4.05%,–
Nc1c(N(CCC2=CCCCC2)C(=O)COc2ccc(F)cc2)c(=O)[nH]c(=O)n1Cc1ccccc1,–,"inconclusive: 29.1 µM [cytotoxic, single point]"
COc1ccc(CNc2cccc3[nH]c(C(F)(F)F)nc23)cc1,–,"inconclusive: 23.1 µM [cytotoxic, single point]"
Cn1c(=O)c(=O)n(C)c2cc(S(=O)(=O)N3CCC(Cc4ccccc4)CC3)ccc21,inactive: -0.214%,–
O=C1c2cccc3c([N+](=O)[O-])ccc(c23)C(=O)N1CC1CCCO1 (configuration not stated),–,active: 18.4 µM
Cc1c(O)c(=O)ccn1Cc1ccccc1,inactive: -11.8%,–
O=[N+]([O-])c1ccc2[nH]c3c(c2c1)CCCC3O (configuration not stated),–,"inconclusive: 29.1 µM [cytotoxic, single point]"
CCCCn1nnnc1C(c1cccs1)N1CCN(C/C=C/c2ccccc2)CC1 (configuration not stated),–,"inconclusive: 29.1 µM [cytotoxic, single point]"
CCOC(=O)Cc1csc(NC(=O)/C=C/c2cccc(Br)c2)n1,–,"inconclusive: 20.6 µM [cytotoxic, partial curve]"
O=C(Nc1cccc(Cl)c1)c1cc(S(=O)(=O)NCCc2ccc(Cl)cc2)ccc1F,–,active: 29.1 µM
COc1ccccc1CNCc1cc(Br)ccc1OC,inconclusive: -31% [cytotoxic],–
CCCCN1C(=O)c2ccc(C(=O)Nc3cccc(C)c3C)cc2C1=O,inactive: -1.03%,–
Cc1occc1C(=O)N/N=C/c1ccc2c(c1)OCO2,–,active: 8.2 µM
Cc1cc(C)cc(C(=O)N(CCc2ccccc2)C2CC3CCC(C2)N3C)c1 (configuration not stated),–,"inconclusive: 29.1 µM [cytotoxic, single point]"
CCOC(=O)C1CCCN(CCC(=O)Nc2ccc3c(c2)CCC3)C1 (configuration not stated),–,"inconclusive: 35.5 µM [cytotoxic, single point]"
COc1ccccc1-c1cc(C(=O)NCc2ccc(F)cc2)no1,–,"inconclusive: 22.4 µM [cytotoxic, single point]"
COc1ccccc1CNC(=O)C1CC2Cn3c(nc4ccccc43)C2N1C (configuration not stated),inactive: -7.49%,–
NC(=S)NNC(=O)Nc1cccc(Cl)c1,inactive: 16.5%,–
FC(F)(F)c1ccccc1N/N=C/c1cccnc1,inactive: -5.2%,–
N#C/C(=C\c1c(Cl)cccc1Cl)c1nn(-c2ccccc2)c(-n2cccc2)c1C#N,inactive: -5.33%,–
CC(C)Oc1ccc(C(=O)NC2(C(F)(F)F)NC(=O)N(CCCc3ccccc3)C2=O)cc1 (configuration not stated),–,"inconclusive: 18.4 µM [cytotoxic, single point]"
N#Cc1nc(-c2cccs2)oc1NCCCN1CCOCC1,inconclusive: 12.4% [at 9.24 µM],–
CCn1nc(C)c(CN2CCC(C(=O)Nc3cccc(-c4cccc(F)c4)c3)CC2)c1C,inconclusive: -7.71% [cytotoxic],–
O=C(CC1(c2ccc(Cl)cc2)C2CC3CC(C2)CC1C3)NCCO (configuration not stated),–,"inconclusive: 18.4 µM [cytotoxic, single point]"
